Molecular target: the molecule itself
Experiment: AUC; sedimentation velocity, tetramerisation; 5 uM SAMHD1 in 50 mM Tris, 50 mM NaCl, 5 mM MgCl2, 1 mM DTT, pH 8, with 10 uM GTP and 50 uM dATP (also run without nucleotides); 45,000 rpm, 20 C

Row | Protein | binding result
1 | SAMHD1_([…]) D311A (domain or fragment, also called D311A protein; source: bacterial expression system, purified (as previously described)) not shown | binds
2 | SAMHD1_([…]) D311A/C522S (domain or fragment, source: bacterial expression system, purified (as previously described)) not shown | binds
3 | SAMHD1_([…]) D311A/C341S (domain or fragment, source: bacterial expression system, purified (as previously described)) not shown | binds
4 | SAMHD1_([…]) D311A/C350S (domain or fragment, source: bacterial expression system, purified (as previously described)) not shown | binds
